# Experimental data published in paper PMC4336329 (PLoS ONE, 2015).
# About 2,200 (0.71%) of roughly 310,000 compounds showed an effect of 50% or more. The effect is printed as a negative number. The list shows a part of the results.
# Target: human ether-à-go-go-related gene (hERG) potassium channel (human, UniProt Q12809)
# Assay: primary screen, population patch clamp on CHO cells stably expressing hERG
# Chain of human ether-à-go-go-related gene (hERG) potassium channel (Q12809 whole entry, looked up): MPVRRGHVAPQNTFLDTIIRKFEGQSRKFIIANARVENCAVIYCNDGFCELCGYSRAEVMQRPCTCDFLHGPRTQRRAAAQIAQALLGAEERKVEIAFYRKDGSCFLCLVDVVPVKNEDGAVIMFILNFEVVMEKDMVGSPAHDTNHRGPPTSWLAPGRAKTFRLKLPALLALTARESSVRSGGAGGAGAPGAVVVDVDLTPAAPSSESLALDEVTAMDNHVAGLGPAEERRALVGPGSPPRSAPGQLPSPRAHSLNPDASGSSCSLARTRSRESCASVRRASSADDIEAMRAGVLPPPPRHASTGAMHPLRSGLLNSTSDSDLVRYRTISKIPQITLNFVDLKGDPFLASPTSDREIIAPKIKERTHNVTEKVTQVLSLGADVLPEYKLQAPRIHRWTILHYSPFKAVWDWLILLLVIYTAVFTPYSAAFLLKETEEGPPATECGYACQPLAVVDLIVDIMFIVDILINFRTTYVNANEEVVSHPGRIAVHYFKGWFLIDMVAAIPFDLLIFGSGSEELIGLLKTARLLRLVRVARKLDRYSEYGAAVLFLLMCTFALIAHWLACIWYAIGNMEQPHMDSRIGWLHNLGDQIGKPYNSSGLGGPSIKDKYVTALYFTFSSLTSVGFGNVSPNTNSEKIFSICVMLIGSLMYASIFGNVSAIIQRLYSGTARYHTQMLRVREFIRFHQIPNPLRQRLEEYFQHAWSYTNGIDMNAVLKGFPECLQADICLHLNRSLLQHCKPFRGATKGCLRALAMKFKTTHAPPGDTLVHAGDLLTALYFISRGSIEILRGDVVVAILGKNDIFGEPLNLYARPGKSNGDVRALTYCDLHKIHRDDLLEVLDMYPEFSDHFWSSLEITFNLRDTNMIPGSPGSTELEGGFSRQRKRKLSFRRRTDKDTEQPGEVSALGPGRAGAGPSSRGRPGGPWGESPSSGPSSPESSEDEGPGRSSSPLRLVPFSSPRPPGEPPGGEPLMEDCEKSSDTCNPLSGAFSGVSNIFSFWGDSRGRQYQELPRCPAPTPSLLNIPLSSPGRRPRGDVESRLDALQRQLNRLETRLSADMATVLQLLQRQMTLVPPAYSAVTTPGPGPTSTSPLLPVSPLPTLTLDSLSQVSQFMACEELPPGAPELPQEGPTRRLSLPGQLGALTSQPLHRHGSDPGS
row,SMILES,"hERG current change (%, negative = inhibition) at 1uM [%]"
1,Cc1ccccc1N1CCN(Cc2c(C#N)c3ccccc3n2C)CC1,4.22
2,O=C(NCc1ccccn1)c1ccc(Cl)c(S(=O)(=O)N2CCCCCC2)c1,-3.17
3,NNC(=S)NCCc1ccccc1,6.33
4,CCCC(=O)NC(C)c1nc2ccccc2n1C(C)C (stereo not drawn),11.2
5,Cc1[nH]n(-c2cccc(Cl)c2)c(=O)c1-c1ccccc1,13.1
6,O=C(O)CC1C(=O)OCN1C(=O)OCc1ccccc1 (stereo not drawn),10.6
7,c1ccc(-c2cc3ccccc3[nH]2)cc1,15.9
8,COCCN1C(=O)N(c2ccc(Cl)cc2)C(=O)C1CC(=O)Nc1cc(OC)cc(OC)c1 (stereo not drawn),5.78
9,O=C(NCc1ccccc1Cl)C1CCN(c2cnccn2)CC1,1.71
10,COc1cc(NC(=O)c2cc3c(Cl)nc4ccccc4c3s2)cc(OC)c1OC,19
11,CCOC(=O)c1cc2c(nc1N)CC(C)(C)OC2.Cl,18.6
12,O=c1nc(Nc2ccc(Br)cc2)sc2ccc([N+](=O)[O-])cc12,12.8
13,O=C(NC(=S)NN1CCCCC1c1cccnc1)c1ccc(Br)cc1 (stereo not drawn),-2.95
14,COc1ccc(N2C(=O)CC(Cc3ccc(Br)cc3)C2=O)cc1 (stereo not drawn),5.64
15,CCNC(=S)N/N=C(\C)c1ccc2c(c1)OCCO2,7.97
16,COc1ccc(C(=O)NCc2nnc(SCC(=O)NC3CCCC3)o2)cc1,21.4
17,CN(C)S(=O)(=O)c1ccc(S(=O)(=O)Nc2ccc3c(c2)oc2ccccc23)cc1,8.27
18,CC1(C)CC(N=Cc2c(O)n(Cc3ccc4c(c3)OCO4)c(=O)c3ccccc23)CC(C)(C)N1,9.73
19,COc1ccccc1OCCNC(=O)c1cc([N+](=O)[O-])cc([N+](=O)[O-])c1,12.1
20,CC(C)(C)Nc1nc(-c2ccccn2)nc2ccccc12,4.44
21,CCn1c(SCC(=O)NCC2CCCO2)nnc1-c1c[nH]c2ccccc12 (stereo not drawn),10.2
22,COc1ccc(S(=O)(=O)CCC(=O)NCCc2ccc(S(N)(=O)=O)cc2)cc1,13.1
23,Cc1ccc2nc(CSc3nc(C)ccc3C#N)[nH]c2c1,12.2

row,SMILES,"hERG current change (%, negative = inhibition) at 1uM [%]"
1,Cc1ccc2nc(NC(=O)CCCc3nc4ccccc4s3)sc2c1,-2.55
2,CCOC(=O)c1ccc2[nH]c3c(c2c1)CCCC3O (stereo not drawn),15.9
3,CCOC(=O)C1CCCN(S(=O)(=O)CCNC(=O)c2ccc3c(c2)OCO3)C1 (stereo not drawn),16.4
4,Cc1ccc(/C=N/n2nnnc2N)cc1,2.68
5,COc1ccc(Cl)cc1NC(=O)NCC1CCN(C(=O)OC(C)(C)C)CC1,9.08
6,Cc1cccc(N2C(=O)SC(N(CC(=O)O)c3cccc(C)c3)C2=O)c1 (stereo not drawn),21.3
7,Cc1ccc(N(CC(O)COCc2ccco2)S(=O)(=O)c2ccc(C)cc2)cc1 (stereo not drawn),11.4
8,COc1ccccc1CNC(=O)C(=O)NCCC1CCCCN1S(=O)(=O)c1ccc(C)cc1 (stereo not drawn),8.68
9,COc1ccc(NC(=S)N2CCN(C(=O)c3ccco3)CC2)cc1,1.47
10,CCN(CC)S(=O)(=O)c1ccc(OC)c(NC(=O)c2ccc(-n3cncn3)c([N+](=O)[O-])c2)c1,19.6
11,CCCc1cc(=O)[nH]c(SCC(=O)NCC2COc3ccccc3O2)n1 (stereo not drawn),-4.72
12,COc1ccc(/C=N/NC(=O)c2cc(C)oc2C)cc1OC,9.42
13,CN1CCN(NC(=O)Nc2ccc(Br)cc2Cl)CC1,0.741
14,CC(=O)N1CCC(C(=O)NCCOc2ccc(C)cc2)CC1,10.6
15,CCC(C(=O)NC1CCCCC1)n1c(SCc2ccccc2F)nc2ccncc21 (stereo not drawn),3.08
16,O=C(Nc1ccccc1)c1nn(-c2cccc(C(F)(F)F)c2)ccc1=O,5.94
17,CC(C)C(NC(=O)OCc1ccccc1)C(=O)N1CCOCCOCCOCC1 (stereo not drawn),17.2
18,Cc1ccc(CNC(=O)CO/N=C/c2ccc3c(c2)OCO3)cc1,6.67
19,Cc1ccc(C)c(Nc2nn3c(=O)c4ccc(C(=O)NCc5cccnc5)cc4nc3s2)c1,9.24
20,COc1cccc(OCCn2cccc2/C=C2/C(=N)N3OC(C)=CC3=NC2=O)c1,12.3
21,O=C(c1cccs1)N1N=C(c2ccccc2)CC1c1ccccc1O (stereo not drawn),17.2
22,Br.Clc1ccc(-c2cn3cc(Br)ccc3n2)cc1Cl,-1.52
